Reference: article PMC9911399, “Two distinct binding modes provide the RNA-binding protein RbFox with extraordinary sequence specificity”
Numbering of substitutions follows the chain as printed; changes in the protein carry UniProt numbers. This is one part of the list.

T1: RBFOX1 RRM RbFoxmut (Fox-RRM*) (Homo sapiens, UniProt Q9NWB1 109-208, R118D;E147R;N151S;E152T)
T1 sequence: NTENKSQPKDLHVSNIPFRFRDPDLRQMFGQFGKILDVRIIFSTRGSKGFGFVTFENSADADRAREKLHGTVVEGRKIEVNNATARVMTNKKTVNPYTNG

B1: UAUGGCC (DNA:RNA)
RNA: GGGAGACCGGAAUUCAGAUUGUCCUAUGGCCUUAAAUCCCGUCGUAGCCACCA
DNA 1: CAATCTGAATTCCGGTCTCCC
DNA 2: TGGTGGCTACGACGGGATT
B2: GUCGUCA (DNA:RNA)
RNA: B1 RNA with U25G, A26U, U27C, G29U, C31A
DNA 1: CAATCTGAATTCCGGTCTCCC
DNA 2: TGGTGGCTACGACGGGATT
B3: CUCAGAC (DNA:RNA)
RNA: B1 RNA with U25C, A26U, U27C, G28A, C30A
DNA 1: CAATCTGAATTCCGGTCTCCC
DNA 2: TGGTGGCTACGACGGGATT
B4: CGUCUUA (DNA:RNA)
RNA: B1 RNA with U25C, A26G, G28C, G29U, C30U, C31A
DNA 1: CAATCTGAATTCCGGTCTCCC
DNA 2: TGGTGGCTACGACGGGATT
B5: CAAGGAC (DNA:RNA)
RNA: B1 RNA with U25C, U27A, C30A
DNA 1: CAATCTGAATTCCGGTCTCCC
DNA 2: TGGTGGCTACGACGGGATT
B6: UAGUACU (DNA:RNA)
RNA: B1 RNA with U27G, G28U, G29A, C31U
DNA 1: CAATCTGAATTCCGGTCTCCC
DNA 2: TGGTGGCTACGACGGGATT
B7: CCGCGAG (DNA:RNA)
RNA: B1 RNA with U25C, A26C, U27G, G28C, C30A, C31G
DNA 1: CAATCTGAATTCCGGTCTCCC
DNA 2: TGGTGGCTACGACGGGATT
B8: UCGUGGA (DNA:RNA)
RNA: B1 RNA with A26C, U27G, G28U, C30G, C31A
DNA 1: CAATCTGAATTCCGGTCTCCC
DNA 2: TGGTGGCTACGACGGGATT
B9: CGUUACG (DNA:RNA)
RNA: B1 RNA with U25C, A26G, G28U, G29A, C31G
DNA 1: CAATCTGAATTCCGGTCTCCC
DNA 2: TGGTGGCTACGACGGGATT
B10: AGUGGGG (DNA:RNA)
RNA: B1 RNA with U25A, A26G, C30G, C31G
DNA 1: CAATCTGAATTCCGGTCTCCC
DNA 2: TGGTGGCTACGACGGGATT
B11: CAAGUUG (DNA:RNA)
RNA: B1 RNA with U25C, U27A, G29U, C30U, C31G
DNA 1: CAATCTGAATTCCGGTCTCCC
DNA 2: TGGTGGCTACGACGGGATT
B12: CGGUAAG (DNA:RNA)
RNA: GGGAGACCGGAAUUCAGAUUGUCCCGGUAAGUUAAAUCCCGUCGUAGCCACCA
DNA 1: CAATCTGAATTCCGGTCTCCC
DNA 2: TGGTGGCTACGACGGGATT
B13: CCAACGU (DNA:RNA)
RNA: B12 RNA with G26C, G27A, U28A, A29C, A30G, G31U
DNA 1: CAATCTGAATTCCGGTCTCCC
DNA 2: TGGTGGCTACGACGGGATT
B14: GUGGGGG (DNA:RNA)
RNA: B12 RNA with C25G, G26U, U28G, A29G, A30G
DNA 1: CAATCTGAATTCCGGTCTCCC
DNA 2: TGGTGGCTACGACGGGATT
B15: UGAGCUG (DNA:RNA)
RNA: B12 RNA with C25U, G27A, U28G, A29C, A30U
DNA 1: CAATCTGAATTCCGGTCTCCC
DNA 2: TGGTGGCTACGACGGGATT
B16: AACUAUC (DNA:RNA)
RNA: B12 RNA with C25A, G26A, G27C, A30U, G31C
DNA 1: CAATCTGAATTCCGGTCTCCC
DNA 2: TGGTGGCTACGACGGGATT
B17: GAGUGAU (DNA:RNA)
RNA: B12 RNA with C25G, G26A, A29G, G31U
DNA 1: CAATCTGAATTCCGGTCTCCC
DNA 2: TGGTGGCTACGACGGGATT
B18: GCAACCC (DNA:RNA)
RNA: B1 RNA with U25G, A26C, U27A, G28A, G29C
DNA 1: CAATCTGAATTCCGGTCTCCC
DNA 2: TGGTGGCTACGACGGGATT
B19: AUAUGUU (DNA:RNA)
RNA: B12 RNA with C25A, G26U, G27A, A29G, A30U, G31U
DNA 1: CAATCTGAATTCCGGTCTCCC
DNA 2: TGGTGGCTACGACGGGATT
B20: GCGCACG (DNA:RNA)
RNA: B12 RNA with C25G, G26C, U28C, A30C
DNA 1: CAATCTGAATTCCGGTCTCCC
DNA 2: TGGTGGCTACGACGGGATT
B21: UGUCAUG (DNA:RNA)
RNA: B12 RNA with C25U, G27U, U28C, A30U
DNA 1: CAATCTGAATTCCGGTCTCCC
DNA 2: TGGTGGCTACGACGGGATT
B22: GAACGGC (DNA:RNA)
RNA: B1 RNA with U25G, U27A, G28C, C30G
DNA 1: CAATCTGAATTCCGGTCTCCC
DNA 2: TGGTGGCTACGACGGGATT
B23: AGCUAUG (DNA:RNA)
RNA: B12 RNA with C25A, G27C, A30U
DNA 1: CAATCTGAATTCCGGTCTCCC
DNA 2: TGGTGGCTACGACGGGATT
B24: CAGUGGU (DNA:RNA)
RNA: B12 RNA with G26A, A29G, A30G, G31U
DNA 1: CAATCTGAATTCCGGTCTCCC
DNA 2: TGGTGGCTACGACGGGATT
B25: CACCAUA (DNA:RNA)
RNA: B12 RNA with G26A, G27C, U28C, A30U, G31A
DNA 1: CAATCTGAATTCCGGTCTCCC
DNA 2: TGGTGGCTACGACGGGATT
B26: GGGUGUC (DNA:RNA)
RNA: B12 RNA with C25G, A29G, A30U, G31C
DNA 1: CAATCTGAATTCCGGTCTCCC
DNA 2: TGGTGGCTACGACGGGATT
B27: CCAGAUA (DNA:RNA)
RNA: B12 RNA with G26C, G27A, U28G, A30U, G31A
DNA 1: CAATCTGAATTCCGGTCTCCC
DNA 2: TGGTGGCTACGACGGGATT
B28: CGCGACG (DNA:RNA)
RNA: B12 RNA with G27C, U28G, A30C
DNA 1: CAATCTGAATTCCGGTCTCCC
DNA 2: TGGTGGCTACGACGGGATT
B29: GCCUCCU (DNA:RNA)
RNA: B12 RNA with C25G, G26C, G27C, A29C, A30C, G31U
DNA 1: CAATCTGAATTCCGGTCTCCC
DNA 2: TGGTGGCTACGACGGGATT
B30: AGUAGCU (DNA:RNA)
RNA: B1 RNA with U25A, A26G, G28A, C31U
DNA 1: CAATCTGAATTCCGGTCTCCC
DNA 2: TGGTGGCTACGACGGGATT
B31: AUGACGA (DNA:RNA)
RNA: B12 RNA with C25A, G26U, U28A, A29C, A30G, G31A
DNA 1: CAATCTGAATTCCGGTCTCCC
DNA 2: TGGTGGCTACGACGGGATT

Molecular target: T1, RBFOX1 RRM RbFoxmut (Fox-RRM*)
Assay: EMSA; HiTS-Eq, 1 nM pool, 10 min; buffer printed only for the single-RNA assays: 10 mM Tris pH 7.5, 150 mM NaCl, 3.4 mM EDTA, 0.001% NP-40, 30 C
Conditions: tags: His6 N-terminal (pET28a); label: 5' 32P
Procedure, shortened: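 Purified RbFox RRM, wild type or mutant, was incubated for 10 min in 50 µL with 1 nM of a 5′-radiolabelled RNA pool carrying 7 randomized nucleotides, whose flanks were annealed to DNA oligonucleotides, over a series of increasing protein concentrations. Unbound RNA was resolved on 8% native PAGE, cut out, reverse-transcribed, barcoded by PCR and sequenced on an Illumina HiSeq 2500. Relative association constants were derived from changes in read counts for each RNA species versus the control reaction and normalised to the cognate motif.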

Binder	binding signal
B1	0.209 KA relative to UGCAUGU
B2	0.157 KA relative to UGCAUGU
B3	0.0651 KA relative to UGCAUGU
B4	0.072 KA relative to UGCAUGU
B5	0.0678 KA relative to UGCAUGU
B6	0.081 KA relative to UGCAUGU
B7	0.126 KA relative to UGCAUGU
B8	0.0721 KA relative to UGCAUGU
B9	0.137 KA relative to UGCAUGU
B10	0.116 KA relative to UGCAUGU
B11	0.13 KA relative to UGCAUGU
B12	0.0872 KA relative to UGCAUGU
B13	0.113 KA relative to UGCAUGU
B14	0.104 KA relative to UGCAUGU
B15	0.101 KA relative to UGCAUGU
B16	0.0669 KA relative to UGCAUGU

Binder	binding signal
B17	0.101 KA relative to UGCAUGU
B18	0.0513 KA relative to UGCAUGU
B19	0.139 KA relative to UGCAUGU
B20	0.397 KA relative to UGCAUGU
B21	0.597 KA relative to UGCAUGU
B22	0.152 KA relative to UGCAUGU
B23	0.229 KA relative to UGCAUGU
B24	0.13 KA relative to UGCAUGU
B25	0.138 KA relative to UGCAUGU
B26	0.368 KA relative to UGCAUGU
B27	0.14 KA relative to UGCAUGU
B28	0.118 KA relative to UGCAUGU
B29	0.0603 KA relative to UGCAUGU
B30	0.0966 KA relative to UGCAUGU
B31	0.0609 KA relative to UGCAUGU
